Experimental data published in PubChem BioAssay AID2675 (National Center for Advancing Translational Sciences (NCATS), 2010).
Screen size: about 280,000 compounds; about 100 (0.036%) were called active. The shares of active, inactive and inconclusive entries below differ from those in the screen. The call rests on the fitted dose curve; in most records, active means well fitted inhibition curve with a large enough effect in the signal ratio, with a control signal flat (not every such curve was filed as active); inconclusive means small, poorly fitted or top-dose-only effect, or effect the other way, or a change in a side signal; inactive means no such curve, though single readings can be large or run the other way; the % refers to the signal ratio. A potency beside an inconclusive call is a rough fit, not a confirmed value. A note “side channel” means that the fit belongs to a control or component signal, not to the main read-out.

Target: Muscleblind-like protein 1 (Homo sapiens) (UniProt Q9NR56)
Sequence of UniProt Q9NR56 (Q9NR56 whole entry, looked up): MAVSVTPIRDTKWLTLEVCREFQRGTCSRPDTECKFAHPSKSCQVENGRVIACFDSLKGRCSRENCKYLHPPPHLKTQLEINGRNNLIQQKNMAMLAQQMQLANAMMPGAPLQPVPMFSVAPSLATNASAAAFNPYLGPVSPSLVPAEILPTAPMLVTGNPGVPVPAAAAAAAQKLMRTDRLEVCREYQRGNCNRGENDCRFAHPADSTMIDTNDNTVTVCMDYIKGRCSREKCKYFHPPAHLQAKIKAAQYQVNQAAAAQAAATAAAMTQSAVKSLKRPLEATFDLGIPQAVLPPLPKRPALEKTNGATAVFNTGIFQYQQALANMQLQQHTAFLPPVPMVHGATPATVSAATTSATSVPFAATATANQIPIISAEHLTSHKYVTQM
Assay: qHTS Assay for Inhibitors of MBNL1-poly(CUG) RNA binding
Conditions: TR-FRET MBNL1-His/biotin-(CUG)12 binding, 665/545 ratio; series mostly up to 57.5 µM
Method in brief: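 TR-FRET between His-tagged MBNL1 and biotin-(CUG)12 RNA, detected with Tb anti-His antibody (0.055 ng/ul) and streptavidin-XL665 (5 nM), 60 min at room temperature. Compounds titrated 92 nM to 58 uM; 665/545 nm ratio normalized to buffer and complex controls.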
Potency means the concentration at half of the fitted maximal effect; tags describe the fitted curve by direction and shape or compound fluorescence and quenching.

Row | SMILES | Potency
1 | O=C1/C(=C/c2ccco2)SC(=S)N1C1CCS(=O)(=O)C1 (centres undefined) | inconclusive: 14.1 µM [quencher, side channel, partial curve]
2 | CCn1c(C)cc(C=C2C(=O)c3ccccc3C2=O)c1C | inconclusive: 20 µM [quencher, side channel, partial curve]
3 | COCCCNC(=S)NNC(=O)c1csc2ccccc12 | inconclusive: 2.24 µM [fluorescent, side channel, partial curve]
4 | CCOC(=O)c1cnc2ccc(OC)cc2c1Nc1ccc(N2CCN(C)CC2)cc1 | inconclusive: 7.94 µM [quencher, side channel, full curve]
5 | C/C(=C\COc1cc(=O)[nH]c2ccccc12)CCC(O)C(C)(C)O (centres undefined) | inconclusive: 39.8 µM [quencher, single point]
6 | CCOCCCn1c(=NC(=O)c2cccs2)c(C#N)cc2c(=O)n3ccccc3nc21 | inconclusive: 5.01 µM [quencher, side channel, partial curve, poor fit]
7 | CCn1cc(C(=O)N2CCCC2)c(=O)c2cc(S(=O)(=O)N3CCOCC3)ccc21 | inactive
8 | CCCC(=O)OCC(=O)Nc1cc(Cl)ccc1[N+](=O)[O-] | inconclusive: 15.8 µM [quencher, side channel, partial curve]
9 | CN1C(C(=O)NCc2cccs2)=CC(c2ccc(F)cc2)=NS1(=O)=O | inconclusive: 25.1 µM [quencher, side channel, partial curve]
10 | O=C(CN1CCCC1)OCCCC1CCCCC1 | inactive
11 | COc1ccc(C2=NS(=O)(=O)N(C)C(C(=O)NCc3ccc4c(c3)OCO4)=C2)cc1OC | inconclusive: 12.6 µM [quencher, side channel, partial curve]
12 | Cc1ccccc1NC(=S)NC(=O)/C=C/c1ccco1 | inactive
13 | COc1ccc2[nH]c(O)c(N=NC(=O)Cc3cccs3)c2c1 | inconclusive: 12.6 µM [quencher, partial curve]
14 | COc1cc(-c2noc(C)c2-c2ccc3[nH]ccc3c2)cc(OC)c1OC | inactive
15 | O=C1CCNc2ccc(-c3ccccc3)cc21 | inconclusive: 22.4 µM [quencher, partial curve]
16 | O=C(c1ccccc1)c1ccc2nc[nH]c2c1 | inconclusive: 3.98 µM [quencher, side channel, single point]
17 | CCN(CC)S(=O)(=O)c1cc(NC(=O)c2ccc(-n3cncn3)c([N+](=O)[O-])c2)ccc1C | inconclusive: 15.8 µM [quencher, partial curve]
18 | COC(=O)c1c(C(=O)OC)c(-c2ccc(Br)cc2)n2c1CS(=O)C2 (centres undefined) | inactive
19 | O=C1C2C(C(=O)N1CCN1CCN(Cc3ccc([N+](=O)[O-])cc3)CC1)[C@H]1C=C[C@@H]2C1 (some centres undefined) | inconclusive: 22.4 µM [quencher, side channel, partial curve]
20 | Nc1c(C(=O)CCC(=O)O)oc2ccc(Cl)cc12 | inconclusive: 28.2 µM [quencher, side channel, partial curve]

Row | SMILES | Potency
21 | CC(=O)c1sc(-c2ccccn2)nc1C | inconclusive: 15.8 µM [quencher, side channel, partial curve]
22 | Cc1c(OCC(=O)C(C)(C)C)ccc2c(-c3ccccc3)cc(=O)oc12 | inconclusive: 20 µM [quencher, side channel, partial curve]
23 | O=C(N/N=C/c1cccs1)c1ccc2c(c1)OCO2 | inconclusive: 2.82 µM [quencher, side channel, single point]
24 | O=C(Nc1nc(-c2ccccc2)cs1)Nc1ccc(F)cc1F | inactive
25 | Oc1c(C(c2ccco2)N2CCOCC2)sc2ncnn12 (centres undefined) | inconclusive: 12.6 µM [quencher, side channel, partial curve]
26 | O=C(NCCN1CCOCC1)c1cc([N+](=O)[O-])cc([N+](=O)[O-])c1 | inconclusive: 14.1 µM [quencher, side channel, partial curve]
27 | CCOc1ccc(-c2c[n+](=O)c3c(n2[O-])CCCC3)c(OCC)c1 | inconclusive: 17.8 µM [quencher, side channel, partial curve]
28 | COc1cc2cc(Oc3ccc4ccc(=O)oc4c3)c(=O)oc2cc1O | inconclusive: 6.31 µM [fluorescent, side channel, single point]
29 | NC(=O)[C@@H]1CCCNc2c(I)cc([N+](=O)[O-])cc2C(=O)N[C@@H](CO)C(=O)NCC(=O)N1 | inconclusive: 14.1 µM [quencher, side channel, partial curve]
30 | O=C(Oc1ccc(=O)n(-c2ccccc2)n1)c1ccc(Cl)cc1 | inactive
31 | CC(C)(C)c1nc(CN2CCOCC2)ccc1O | inconclusive: 100 µM [inhibitor, partial curve, poor fit]
32 | COc1ccc(CNc2ncc(-c3ccc(F)cc3)n2C)cc1OC | inactive
33 | CCOC(=O)Cn1c(=O)oc2cc(S(=O)(=O)NCCCc3ccccc3)ccc21 | inconclusive: 25.1 µM [quencher, side channel, single point]
34 | CCOc1ccccc1C(=O)N/N=C/c1cccc2cccnc12 | inconclusive: 14.1 µM [quencher, side channel, partial curve]
35 | COc1ccc(-c2cc(=O)c3cc(O)ccc3o2)cc1 | inconclusive: 14.1 µM [quencher, side channel, partial curve]
36 | CC(=O)N1CCN(Cc2nc3cc([N+](=O)[O-])ccc3n2C)CC1 | inconclusive: 39.8 µM [quencher, side channel, single point]
37 | C=CCOn1c(=O)c(-c2ccc(OCC)cc2)[n+]([O-])c2ccccc21 | inconclusive: 2.82 µM [quencher, side channel, full curve]
38 | Cc1cc([N+](=O)[O-])nn1Cc1ccc(C(=O)N/N=C/c2ccccc2)cc1 | inconclusive: 20 µM [quencher, side channel, single point]
39 | O=C(NCCc1ccccc1)c1ccc(NCC2CCCO2)c([N+](=O)[O-])c1 (centres undefined) | inconclusive: 10 µM [quencher, side channel, partial curve]
